Measured values from PubChem BioAssay AID624417 (National Center for Advancing Translational Sciences (NCATS), 2012).
Out of some 410,000 compounds screened, about 6,400 (1.6%) were called active. Inconclusive results, whose numbers are uncertain, are shown with a selection of clear calls. The call rests on the fitted dose curve; in most records, active means well fitted inhibition curve with a large enough effect; inconclusive means small, poorly fitted or top-dose-only effect; inactive means no such curve, though single readings can be large or run the other way. Potencies beside an inconclusive call are fits to weak or partial responses and may not hold up.

Target: Glucagon-like peptide 1 receptor (Homo sapiens) (UniProt P43220)
Assay: qHTS of GLP-1 Receptor Inverse Agonists (Inhibition Mode); further: nearly all actives have a fitted effect of over 55% in size
Settings: HEK293 GLP-1R CRE-luciferase, luminescence, 24 h, GLP-1R form is constitutively active; series mostly up to 38.3 µM
Outline: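 Stable HEK293 clone (constitutively active GLP-1R + cAMP-response luciferase); 200 cells/uL plated, 12 h pre-culture, compound 24 hr, 37 deg C/5% CO2; detection reagent 12 min RT; luminescence.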
Potency means the concentration at half of the fitted maximal effect; tags describe the fitted curve by direction and shape.

Sequence of UniProt P43220 (P43220 whole entry, looked up): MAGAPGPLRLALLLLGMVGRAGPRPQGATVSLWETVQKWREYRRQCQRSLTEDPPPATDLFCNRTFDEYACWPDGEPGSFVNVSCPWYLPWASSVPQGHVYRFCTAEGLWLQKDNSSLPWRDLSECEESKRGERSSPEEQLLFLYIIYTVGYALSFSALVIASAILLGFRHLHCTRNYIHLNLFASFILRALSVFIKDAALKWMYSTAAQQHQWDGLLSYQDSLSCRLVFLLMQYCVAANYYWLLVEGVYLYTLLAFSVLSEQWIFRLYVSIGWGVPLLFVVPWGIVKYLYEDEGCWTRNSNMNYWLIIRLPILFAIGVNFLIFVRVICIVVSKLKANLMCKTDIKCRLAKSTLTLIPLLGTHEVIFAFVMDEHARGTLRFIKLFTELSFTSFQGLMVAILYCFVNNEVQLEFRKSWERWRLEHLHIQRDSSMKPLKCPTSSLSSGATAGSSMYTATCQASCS

Potency, inactive:
CCOC(=O)c1nc(C)nc(Sc2n[nH]c(-c3cc(Cl)cc(Cl)c3)n2)c1C
Cc1cc(NC(=O)c2ccc(Br)o2)cc(-c2nc3ccccc3o2)c1O
COc1ccc2nc(NC(=O)CSc3nnc(N)s3)sc2c1
CCC1CCCCN1C(=O)CSc1nc2ncccc2[nH]1 (stereo not given)
Cc1c2ccccc2nc2c(F)c(N(C)C)c(F)c(F)c12
Clc1ccccc1-c1ccc2nccn2c1
O=C(Nc1ccc(Cl)cc1)C1CCCN(S(=O)(=O)c2ccc3[nH]c(=O)ccc3c2)C1 (stereo not given)
COc1ccccc1OCC(=O)N1CCC2(CC1)CC(=O)c1ccccc1O2
Cc1ccc(OCC(=O)Nc2cccc(S(=O)(=O)NC3=NCCCCC3)c2)cc1C

Potency, inconclusive:
Cc1cccc(NC(=O)NCC(c2ccc(F)cc2)N2CCN(C)CC2)c1 (stereo not given) 11.2 µM [inhibitor, single point]
O=C(CSc1nccc2ccccc12)N1CCN(Cc2ccc3c(c2)OCO3)CC1 12.6 µM [inhibitor, partial curve, poor fit]
O=C(NCCSCc1ccc(Cl)cc1)c1cccs1 10 µM [inhibitor, partial curve, poor fit]
CCn1c(=O)c(CCC(=O)NCC2CCCO2)c(C)c2c(C)nn(-c3ccccc3)c21 (stereo not given) 28.2 µM [inhibitor, single point]
COc1ccc(C(C(=O)Nc2ccc3c(c2)OCCO3)n2c(=O)c(-c3ccco3)nc3ccccc32)cc1 (stereo not given) 10 µM [inhibitor, partial curve, poor fit]
CC(C)(C)c1ccc(C(=O)c2c[nH]c(C(=O)NCC3CCCO3)c2)cc1 (stereo not given) 10 µM [inhibitor, partial curve]
CCC(=O)NC(=S)Nc1ccc(Cl)cn1 14.1 µM [inhibitor, single point]
Cc1ccc(Cl)cc1N1CCN(C(=O)C2CCN(S(=O)(=O)c3c(C)nn(C)c3C)CC2)CC1 11.2 µM [inhibitor, partial curve, poor fit]
COc1ccc(NC(=O)c2cccc(OS(=O)(=O)N(C)C)c2)cc1 12.6 µM [inhibitor, single point]
Cc1cc(Nc2nc3ccccc3nc2Cl)n(-c2ccccc2C)n1 25.1 µM [inhibitor, single point]
CCCS(=O)(=O)n1nc(-c2ccc(Br)cc2)cc1N 28.2 µM [inhibitor, single point]
CC1=NN(C(=O)c2ccc(Cl)cc2)C(O)(c2ccccc2)C1 (stereo not given) 1.26 µM [inhibitor, full curve, poor fit]
Cc1ccc(NC(=S)Nc2cccc3ccccc23)cc1F 11.2 µM [inhibitor, partial curve, poor fit]
COC(=O)c1c(NC(=O)Cc2ccccc2)sc2c1C(C(=O)OC)CC2 (stereo not given) 4.47 µM [inhibitor, partial curve, poor fit]
COc1ccc(Cl)cc1NC(=O)c1ccc2nc(Cc3ccccc3)oc2c1 22.4 µM [inhibitor, single point]
Cc1[nH]c2ccccc2c1C(=O)C(=O)N1c2ccccc2CC1C (stereo not given) 10 µM [inhibitor, partial curve, poor fit]
CCCCSCCCNC(=O)c1ccc2c(c1)N(CC)C(=O)c1ccccc1S2=O (stereo not given) 28.2 µM [inhibitor, single point]
O=C(CC1N=C2c3ccccc3N=C(SCc3ccc(Cl)cc3)N2C1=O)NCc1ccco1 (stereo not given) 12.6 µM [inhibitor, single point]
Nc1ccn([C@@H]2O[C@H](CO)[C@@H](O)C2O)c(=O)n1 (stereo not given in full) 1.26 µM [inhibitor, full curve, poor fit]
CC(C)c1c(C(=O)N/N=C/c2ccc(C(F)(F)F)cc2)nnn1-c1nonc1N 1.78 µM [inhibitor, full curve]
CC1CCc2c(sc3ncnc(SC(C)C(=O)NCC4CCCO4)c23)C1 (stereo not given) 10 µM [inhibitor, partial curve, poor fit]
COc1ccc(C(C(=O)NCC2CCCO2)N(C(=O)CNC(=O)c2ccco2)c2cc(C)ccc2C)cc1OC (stereo not given) 10 µM [inhibitor, partial curve, poor fit]
CCCN(C(=O)c1cc2c(s1)-c1ccccc1OC2)c1ccccc1F 5.62 µM [inhibitor, partial curve, poor fit]
CC1CN(CCOc2cccc(Oc3ccccc3)c2)CC(C)O1 (stereo not given) 28.2 µM [inhibitor, single point]
CN1CCN(CCCNc2nc3ccccc3c3nc(-c4ccccc4)nn23)CC1 28.2 µM [inhibitor, single point]
COc1ccc(-c2cc(NC=O)c3ncc(-c4cccc(C(C)=O)c4)n3c2)cc1 28.2 µM [inhibitor, single point]
CCCC1=C(C(=O)OCC)C(c2c(C)nn(-c3ccccc3)c2Cl)C(C#N)=C(N)O1 (stereo not given) 31.6 µM [inhibitor, partial curve, poor fit]
COc1cccc(CNC(=O)C2CCCN(S(=O)(=O)c3ccc4c(ccn4C)c3)C2)c1 (stereo not given) 15.8 µM [inhibitor, single point]
O=C(CN1C(=O)NC(c2ccccc2)(c2ccccc2)C1=O)NCc1ccc(F)cc1 10 µM [inhibitor, partial curve, poor fit]
NC(=O)c1ccccc1NS(=O)(=O)Cc1ccc(Cl)cc1 28.2 µM [inhibitor, single point]
COc1ccc(NS(=O)(=O)c2ccc(C(=O)N3CCN(Cc4ccccc4)CC3)cc2)cc1 12.6 µM [inhibitor, partial curve, poor fit]
COc1ccc(COc2ccccc2C(=O)NCc2ccccc2)cc1F 3.55 µM [inhibitor, partial curve, poor fit]
CC(C)CNc1ncnc2c1ncn2[C@H]1CN(Cc2ccc(-c3ccccc3)cc2)C[C@@H](CO)O1 10 µM [inhibitor, partial curve, poor fit]
O=C(c1cc(Br)ccc1Cl)N1CCN(c2ccc(N3CCOCC3)nn2)CC1 6.31 µM [inhibitor, partial curve, poor fit]
Cc1cccc(N2C(=O)N3[C@H](c4ccc(Cl)cc4)[C@@H]4C(=O)N(C5CCCCC5)C(=O)[C@@H]4[C@]3(Cc3ccc(Cl)cc3)C2=O)c1 7.08 µM [inhibitor, partial curve, poor fit]
COc1c(C)cc(C(=O)C2CCCN(Cc3cccc4nccnc34)C2)cc1C (stereo not given) 11.2 µM [inhibitor, partial curve, poor fit]
O=C(CCN1CCN(C(c2ccccc2)c2ccccc2)CC1)N/N=C/c1ccc(O)cc1O 3.55 µM [inhibitor, full curve]
Cc1cc(C(C)(C)C)ccc1Oc1cccc2c1S(=O)(=O)N(C1CCCC1)CC(COCc1ccccc1)O2 (stereo not given) 12.6 µM [inhibitor, partial curve, poor fit]
CCOC(=O)c1cc(-c2ccc(C)cc2)n(CCC(=O)Nc2nc3c(C)cccc3s2)c1C 7.08 µM [inhibitor, partial curve, poor fit]
O=C1NC(=O)C(c2ccccc2)(c2ccc(Cl)cc2Cl)N1 (stereo not given) 28.2 µM [inhibitor, single point]
Cc1cc(-n2c(SCC(=O)NCc3ccccc3)nc3ccsc3c2=O)ccc1Cl 12.6 µM [inhibitor, single point]
Cc1ccc2c(c1)c(=O)c1ccccc1n2CCCC(=O)Nc1ccc(C)c(F)c1 10 µM [inhibitor, partial curve, poor fit]
CC(=O)Nc1cccc(-c2ccnc3c2CC(C)(C(=O)NCCC(F)(F)F)O3)c1 (stereo not given) 0.794 µM [inhibitor, full curve, poor fit]
CC(C)(C(=O)N1CCC1(C)C(=O)Nc1ccccc1Br)c1ccccc1 (stereo not given) 12.6 µM [inhibitor, partial curve, poor fit]
COc1cc(N(C(=O)Cc2cccs2)C(C(=O)NC2CCCCC2)c2ccc(C)cc2)ccc1-n1cnnn1 (stereo not given) 10 µM [inhibitor, single point]
CC(=O)Cn1nnc2sc3c(c2c1=O)CCC(C(C)(C)C)C3 (stereo not given) 3.16 µM [inhibitor, full curve]
CCC(CC)c1nnc(NC(=O)c2c(C)nn(Cc3ccccc3Cl)c2C)s1 7.94 µM [inhibitor, partial curve]
Cc1cc2c(cc1S(=O)(=O)NCCc1ccccc1)NC(=O)CO2 7.94 µM [inhibitor, partial curve, poor fit]
CCOc1ccc(NC(=S)N(CCc2c(C)[nH]c3ccc(C)cc23)Cc2ccncc2)cc1 10 µM [inhibitor, partial curve, poor fit]

Potency, active:
Cc1ncoc1C(=O)N1CCc2c([nH]c3ccccc23)C1C1CCCCC1 (stereo not given) 10 µM
Cc1ccc(NC(=O)c2cc(S(=O)(=O)NCCC3=CCCCC3)ccc2F)cc1F 2 µM
